Reference: ChEMBL document CHEMBL4888484, “Replenishing the malaria drug discovery pipeline: Screening and hit evaluation of the MMV Hit Generation Library 1 (HGL1) against asexual blood stage Plasmodium falciparum ,using a nano luciferase reporter read-out” (2022)
In all, about 150,000 compounds went through this assay and about 540 (0.36%) showed an effect of 50% or more. Some of the results follow.

These compounds were tested on Plasmodium falciparum (assay: Primary screen in NF54 nanoGlo assay, in single point, at 2uM, 72h; a lower Z score goes with more inhibition). Conditions: timepoint 72 hour.
Type: functional, Erythrocyte

Compound | % Inhibition [%] | Z score
CN(C)c1noc(CNCc2c(F)cccc2OC(F)(F)F)n1 | 10 | -1.03
Cc1c(C2CC2)n[nH]c1NS(=O)(=O)c1ccccc1 | -1 | 0.15
Cc1ccc(-c2ccc(C(=O)NCCC3=CCCCC3)cn2)cc1 | -21 | 2.1
Cn1nccc1-c1ccc(CNC(=O)[C@@H]2CCCO2)cn1 | -6 | 0.7
Cc1ccc(CNS(=O)(=O)c2cc(-c3nc(C)c(C(=O)N4CCCCC4)s3)cs2)cc1 | 0 | 0.04
c1ccc2oc(-c3ccnc4ccccc34)nc2c1 | 0 | 0.04
CCOc1ccccc1N(C)C(=O)Nc1nnc(CC)s1 | -19 | 3.59
O=C(O)c1ccc(CN2C(=O)C3CCCCC3C2=O)cc1 (stereo not given) | 34 | -3.85
CCn1c(CC2CCN(C(=O)c3cnccc3C)CC2)nn(C)c1=O | -3 | 0.51
CCOc1ccccc1CN1C[C@@H]2CC[C@H]1CN(S(=O)(=O)N(C)C)C2 | -8 | 0.96
O=C(NC(N1CCc2ccccc2C1)(C(F)(F)F)C(F)(F)F)c1ccccc1 | -14 | 2.03
CCc1c(C(=O)NC[C@H]2Cc3ccccc3O2)ccn1C | -12 | 1.56
C[C@@H](Cc1nnc(NC(=O)COc2ccc(Cl)cc2)s1)c1ccccc1 | -17 | 2.48
CCN(CC(=O)O)C1CCN(Cc2csc3ccccc23)CC1 | -9 | 0.82
CCNC(=O)CCN1CCc2[nH]nc(-c3ccc(-c4ccccc4)cc3)c2C1 | -8 | 0.95
CCN1C[C@@H](c2ccccc2)CC2(CCN(Cc3c(C)noc3C)CC2)C1 | -6 | 0.75
C[C@@]1(C(=O)O)CCCN1Cc1ccc2cc[nH]c2n1 | -16 | 3
CCCc1cc(C(=O)N2C[C@@H](CN3C[C@@H](C)O[C@@H](C)C3)[C@@H](CO)C2)n(C)n1 | -10 | 1
CCC(O)CN1CCOC(CN(CC(C)C)C(=O)c2ccc(OC)cc2)C1 (stereo not given) | -12 | 1.41
COc1ccccc1CCn1nnnc1N1CCC(CO)(OC)CC1 | -4 | 0.74
COc1ccc(OC)c(-c2ncc(NC(=O)c3ccc4ncsc4c3)s2)c1 | -18 | 3
CCOC(=O)N1CCN(C(=O)[C@H]2CCC(=O)N(CCc3ccccc3)C2)CC1 | 3 | -0.54

Compound | % Inhibition [%] | Z score
O=C(c1ccc(-c2cccs2)nc1)N1CCN(C2CCCCC2)CC1 | -11 | 2.07
Cn1cc(CCC(=O)NC2(CC(=O)OC(C)(C)C)CCCC2)cn1 | -9 | 1.61
CCCNC(=O)[C@@H]1COC2(CCC(C)CC2)N1C(=O)CC (stereo not given in full) | 0 | 0.06
CCC(NC(=O)c1cc(CO)ccn1)[C@H]1C[C@@H](O)C1 (stereo not given in full) | -1 | 0.19
O=C(Nc1ccc2c(c1)OC1(CCCCC1)O2)[C@@H]1Cc2ccccc2O1 | 8 | -0.93
Cc1ccc(-c2nc(C#N)c(S(=O)(=O)c3ccc(F)cc3)o2)cc1 | -5 | 0.72
Cc1nc(C(=O)NCc2ncc(Cl)cn2)c[nH]1 | -13 | 2.1
N#Cc1cnn2c(-c3ccncc3)ccnc12 | -13 | 1.4
COc1ccccc1Nc1nc(N)nc(COC(=O)c2cc3ccc(F)cc3nc2C)n1 | -12 | 2.22
Cc1cccc(OCC(=O)NCC(F)(F)F)c1F | -6 | 0.57
Cc1[nH]c2ccccc2c1C1CCN(C(=O)c2ccc(Br)cc2O)CC1 | 35 | -4.7
CCCCN(C)S(=O)(=O)Nc1ccc(CC#N)cc1 | -1 | 0.09
CC(C)Cn1cncc1CN(C)[C@@H](C)c1ccncn1 | -2 | 0.45
COC[C@H]1COCCN1C(=O)c1cccc(Oc2nccs2)c1 | -8 | 1.52
C=CCOC1CCN(C(=O)C2CC3CCC2O3)CC1 (stereo not given) | -11 | 1.79
O=S(=O)(N[C@@H](Cn1cnc2ccccc21)c1ccc(F)cc1)c1c(F)cccc1F | 5 | -0.43
O=C(NC1CC1c1cccc(F)c1)C1COCCN1 (stereo not given) | 2 | -0.27
COc1ccc(CC[C@H]2CCCN(C(=O)c3cccnc3OC)C2)cc1 | -5 | 0.72
CC(C)c1nnc(COc2cnc(C#N)nc2)s1 | -11 | 1.98
CCc1noc([C@H](C)n2cnc3ncccc3c2=O)n1 | -5 | 0.6
NC(=O)[C@H](CC1CCCCC1)NC(=O)[C@H]1CN(C(=O)c2cccc(F)c2)CCN1C(=O)C1CCCCC1 | 2 | -0.33
Cc1n[nH]c([C@@H]2CCN(Cc3ccccc3)CCN2C(=O)c2cnn(C)c2)n1 | -5 | 0.74

Compound | % Inhibition [%] | Z score
Cc1cc2c(cc1-c1cn(C[C@H](C)Oc3cccnc3)nn1)OCO2 | -7 | 1.38
Cc1ncsc1CNc1ccc2c(c1)CCN2C(=O)OC(C)(C)C | 1 | -0.11
Cn1cc[n+](CC(=O)c2ccc(NC(=O)c3ccccc3)cc2)c1 | -1 | 0.22
CC1(Nc2nc(CC(=O)N3CCOC[C@H]3C#N)cs2)CCCC1 | -7 | 1.45
C[C@H]1CS(=O)(=O)CCN1C(=O)NCCCN(C)c1ccccc1 | -3 | 0.42
c1cnn(-c2cc(-c3noc([C@@]45CCCC[C@@H]4NCC5)n3)ccn2)c1 | 1 | -0.13
COc1ccc(CN2CCO[C@@H](CN(CC(C)C)C(=O)c3ccc(C(F)(F)F)cc3)C2)c(OC)c1 | 5 | -0.62
CCC1(CC)CN(C(=O)[C@H]2CCCC[C@@H]2C(F)(F)F)CCS1(=O)=O | 0 | -0.07
O=C(CCc1ccco1)NC(C1CC1)C1CC1 | 5 | -0.8
COc1cc([C@@H]2C3=C(O)N(C(C)=O)CC3=Nc3cccc4c3c2cn4C(C)C)ccc1O | 2 | -0.23
CN(C)C(=O)CCN1CCC[C@](C)(F)C1 | 5 | -0.98
CCn1ncc(NC(=O)Cn2nc(C)c(-c3ccc4ncccc4c3)c2C)n1 | 10 | -1.75
CN(C(=O)c1cnc2ccccn2c1=O)C1CCCCC1 | 10 | -0.99
O=C1CCN(Cc2cc(C#CCO)cs2)CCN1 | -3 | 0.38
CC1(C)COCCN1C(=O)CCCCOc1cccc(C#N)c1 | -3 | 0.34
CCOCCN1CCCN(S(=O)(=O)N2CCCC2)CC1 | -11 | 2.18
CCCN(Cc1c(C)nn(-c2ccccc2)c1Oc1ccccc1)C(=O)Nc1ccc(C(F)(F)F)cc1 | -12 | 1.11
CN1CCN(S(=O)(=O)Cc2ccc(F)cc2)C[C@]12CCNC(=O)CC2 | -5 | 0.68
CCn1ncnc1CNC(=O)N1CCC(c2ccc3cccnc3n2)CC1 | 20 | -2.33
O=C(NCCCOC1CCOC1)NCC1CC1c1ccccc1 (stereo not given) | 1 | -0.19
CS(=O)(=O)Nc1ccc(-n2ccnc2)cn1 | -12 | 1.56
O=c1c2cnc3c(-c4ccc(Cl)cc4)cnn3c2ccn1CCN1CCOCC1 | -11 | 1.6

Compound | % Inhibition [%] | Z score
CN(CCC1(O)CCCC1)Cc1cc2ccccc2[nH]1 | -6 | 1.28
CC(N)C(=O)N1CCC(Oc2ccccc2Cl)C1 (stereo not given) | -8 | 0.7
CCOc1ccc(C(=O)NCC2(O)CCCC2)cc1 | -5 | 0.86
Cc1cc(CN2CC(C)OC(C)C2)no1 (stereo not given) | -7 | 1.37
COc1ccc([C@@H](CC(=O)N2CCCC2)c2cn(Cc3ccccc3)c3ccccc23)cc1 | -8 | 0.98
CC(C)Cc1cc(C(=O)N[C@@H]2CCNC(=O)CC2)cc(O)n1 | -1 | 0.14
Cc1noc(CN(C)C(=O)CCn2nc(C)c(C)c2C)n1 | -17 | 1.95
Cc1oc(-c2ccc3ccccc3c2)nc1CN(C)C1CCOCC1 | -6 | 0.92
N#Cc1nc(-c2cccs2)oc1N1CCCCC1 | -15 | 2.08
O=S(=O)(c1ccc(F)c(Cl)c1)N1CC[C@H](Oc2cc(C(F)(F)F)ccn2)C1 | 3 | -0.6
CCCc1nc(N2CCN(C(=O)CC(C)(C)C)CC2)c2c(-c3ccc4ccccc4c3)noc2n1 | 8 | -1.43
c1ccc(COCCCN2CCc3nocc3C2)cc1 | 12 | -1.08
COc1ccc(-c2cc3n(n2)C[C@@](C)(C(=O)NCc2ccccc2OC)N(Cc2ccccc2C)C3=O)cc1 | 9 | -1.36
Cc1nc(C)c(C)c(NCc2ccc(CN3CCC(O)CC3)cc2)n1 | 6 | -0.77
COc1ccc(NC(=O)CCC2CCN(Cc3ccc4ccccc4c3)CC2)c(OC)c1 | -12 | 1.74
CC(=O)NCC(=O)N1CCC[C@H](Oc2ccncn2)C1 | 7 | -0.97
COc1ccc(Cl)cc1NC(=O)c1cc(O)ncn1 | -3 | 0.57
O=C(O)c1ccc(S(=O)(=O)Nc2ccc(-n3cccn3)c(Cl)c2)c(F)c1 | -1 | 0.12
COC(=O)c1ncoc1C1CCN(C(=O)c2cc(C)cc(F)c2)CC1 | 2 | -0.26
